Results: paper PMC7387497, “Structural analysis of 70S ribosomes by cross-linking/mass spectrometry reveals conformational plasticity” (Scientific Reports, 2020)

Columns and labels:
Test in all cases: cross-linking; DSAU (amine-reactive, MS-cleavable; 1 µL of 5 mM stock to 49 µL) with 1.33 µM purchased E. coli 70S ribosome in 20 mM HEPES pH 7.6, 10 mM MgAc2, 30 mM KCl, 2 mM TCEP; 60 min at room temperature; tryptic digest, LC/MS/MS, MeroX search, 1% FDR
Details in all cases: both partners purified
30S protein S1 = 30S protein S1 (E. coli, UniProt P0AG67)
L9 protein = L9 protein (E. coli, UniProt P0A7R1)
L33 protein = L33 protein (E. coli, UniProt P0A7N9)

Measured: binding result

B1: ribosomal protein L1 (natural protein)
chain: not shown
notes: 50S ribosomal protein L1, E. coli, as part of the purchased 70S ribosome (protein of the L1 stalk); source: bought: New England Biolabs, E. coli ribosome (cat. no. P0763S20 as printed)
binds: 30S protein S1 | L9 protein | L33 protein
